# Measurements taken from article PMC9911399, “Two distinct binding modes provide the RNA-binding protein RbFox with extraordinary sequence specificity”.
# Where a chain is given by its changes, count along the chain named. The list shows a part of the results.
# T1: RBFOX1 RRM RbFoxmut (Fox-RRM*) (Homo sapiens, UniProt Q9NWB1 109-208, R118D;E147R;N151S;E152T)
# T1 sequence: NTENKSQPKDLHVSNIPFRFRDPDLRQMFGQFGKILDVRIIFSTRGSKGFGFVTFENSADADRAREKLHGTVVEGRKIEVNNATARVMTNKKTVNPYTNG
# B1: GGAGGAU (DNA:RNA)
# RNA: GGGAGACCGGAAUUCAGAUUGUCCGGAGGAUUUAAAUCCCGUCGUAGCCACCA
# DNA 1: CAATCTGAATTCCGGTCTCCC
# DNA 2: TGGTGGCTACGACGGGATT
# B2: UUGGAAC (DNA:RNA)
# RNA: B1 RNA with G25U, G26U, A27G, G29A, U31C
# DNA 1: CAATCTGAATTCCGGTCTCCC
# DNA 2: TGGTGGCTACGACGGGATT
# B3: CAUUAGA (DNA:RNA)
# RNA: GGGAGACCGGAAUUCAGAUUGUCCCAUUAGAUUAAAUCCCGUCGUAGCCACCA
# DNA 1: CAATCTGAATTCCGGTCTCCC
# DNA 2: TGGTGGCTACGACGGGATT
# B4: UCGGUCA (DNA:RNA)
# RNA: B3 RNA with C25U, A26C, U27G, U28G, A29U, G30C
# DNA 1: CAATCTGAATTCCGGTCTCCC
# DNA 2: TGGTGGCTACGACGGGATT
# B5: CUCUUCC (DNA:RNA)
# RNA: B3 RNA with A26U, U27C, A29U, G30C, A31C
# DNA 1: CAATCTGAATTCCGGTCTCCC
# DNA 2: TGGTGGCTACGACGGGATT
# B6: AGACAGG (DNA:RNA)
# RNA: B3 RNA with C25A, A26G, U27A, U28C, A31G
# DNA 1: CAATCTGAATTCCGGTCTCCC
# DNA 2: TGGTGGCTACGACGGGATT
# B7: GUCCACG (DNA:RNA)
# RNA: B3 RNA with C25G, A26U, U27C, U28C, G30C, A31G
# DNA 1: CAATCTGAATTCCGGTCTCCC
# DNA 2: TGGTGGCTACGACGGGATT
# B8: UAGAAUG (DNA:RNA)
# RNA: B3 RNA with C25U, U27G, U28A, G30U, A31G
# DNA 1: CAATCTGAATTCCGGTCTCCC
# DNA 2: TGGTGGCTACGACGGGATT
# B9: CCUAUAG (DNA:RNA)
# RNA: B3 RNA with A26C, U28A, A29U, G30A, A31G
# DNA 1: CAATCTGAATTCCGGTCTCCC
# DNA 2: TGGTGGCTACGACGGGATT
# B10: GUGCCCG (DNA:RNA)
# RNA: B1 RNA with G26U, A27G, G28C, G29C, A30C, U31G
# DNA 1: CAATCTGAATTCCGGTCTCCC
# DNA 2: TGGTGGCTACGACGGGATT
# B11: ACUGAAU (DNA:RNA)
# RNA: B1 RNA with G25A, G26C, A27U, G29A
# DNA 1: CAATCTGAATTCCGGTCTCCC
# DNA 2: TGGTGGCTACGACGGGATT
# B12: UUUGUGC (DNA:RNA)
# RNA: B3 RNA with C25U, A26U, U28G, A29U, A31C
# DNA 1: CAATCTGAATTCCGGTCTCCC
# DNA 2: TGGTGGCTACGACGGGATT
# B13: GAUGAAA (DNA:RNA)
# RNA: B3 RNA with C25G, U28G, G30A
# DNA 1: CAATCTGAATTCCGGTCTCCC
# DNA 2: TGGTGGCTACGACGGGATT
# B14: GUGUGCA (DNA:RNA)
# RNA: B3 RNA with C25G, A26U, U27G, A29G, G30C
# DNA 1: CAATCTGAATTCCGGTCTCCC
# DNA 2: TGGTGGCTACGACGGGATT
# B15: CUAUCAU (DNA:RNA)
# RNA: B1 RNA with G25C, G26U, G28U, G29C
# DNA 1: CAATCTGAATTCCGGTCTCCC
# DNA 2: TGGTGGCTACGACGGGATT
# B16: AUUGUAU (DNA:RNA)
# RNA: B1 RNA with G25A, G26U, A27U, G29U
# DNA 1: CAATCTGAATTCCGGTCTCCC
# DNA 2: TGGTGGCTACGACGGGATT
# B17: CUUAAGU (DNA:RNA)
# RNA: B3 RNA with A26U, U28A, A31U
# DNA 1: CAATCTGAATTCCGGTCTCCC
# DNA 2: TGGTGGCTACGACGGGATT
# B18: CUAAUUG (DNA:RNA)
# RNA: B3 RNA with A26U, U27A, U28A, A29U, G30U, A31G
# DNA 1: CAATCTGAATTCCGGTCTCCC
# DNA 2: TGGTGGCTACGACGGGATT
# B19: AAUUCGA (DNA:RNA)
# RNA: B3 RNA with C25A, A29C
# DNA 1: CAATCTGAATTCCGGTCTCCC
# DNA 2: TGGTGGCTACGACGGGATT
# B20: AGCACCG (DNA:RNA)
# RNA: B1 RNA with G25A, A27C, G28A, G29C, A30C, U31G
# DNA 1: CAATCTGAATTCCGGTCTCCC
# DNA 2: TGGTGGCTACGACGGGATT
# B21: CGUAGGA (DNA:RNA)
# RNA: B3 RNA with A26G, U28A, A29G
# DNA 1: CAATCTGAATTCCGGTCTCCC
# DNA 2: TGGTGGCTACGACGGGATT
# B22: ACGUCUG (DNA:RNA)
# RNA: B3 RNA with C25A, A26C, U27G, A29C, G30U, A31G
# DNA 1: CAATCTGAATTCCGGTCTCCC
# DNA 2: TGGTGGCTACGACGGGATT
# B23: AACUGGC (DNA:RNA)
# RNA: B3 RNA with C25A, U27C, A29G, A31C
# DNA 1: CAATCTGAATTCCGGTCTCCC
# DNA 2: TGGTGGCTACGACGGGATT
# B24: CUUUUGA (DNA:RNA)
# RNA: B3 RNA with A26U, A29U
# DNA 1: CAATCTGAATTCCGGTCTCCC
# DNA 2: TGGTGGCTACGACGGGATT
# B25: GAUAGGC (DNA:RNA)
# RNA: B3 RNA with C25G, U28A, A29G, A31C
# DNA 1: CAATCTGAATTCCGGTCTCCC
# DNA 2: TGGTGGCTACGACGGGATT
# B26: GUUUUUC (DNA:RNA)
# RNA: B3 RNA with C25G, A26U, A29U, G30U, A31C
# DNA 1: CAATCTGAATTCCGGTCTCCC
# DNA 2: TGGTGGCTACGACGGGATT
# B27: GGCCUCA (DNA:RNA)
# RNA: B1 RNA with A27C, G28C, G29U, A30C, U31A
# DNA 1: CAATCTGAATTCCGGTCTCCC
# DNA 2: TGGTGGCTACGACGGGATT
# B28: CGGAAUC (DNA:RNA)
# RNA: B3 RNA with A26G, U27G, U28A, G30U, A31C
# DNA 1: CAATCTGAATTCCGGTCTCCC
# DNA 2: TGGTGGCTACGACGGGATT
# B29: CUAUGAA (DNA:RNA)
# RNA: B3 RNA with A26U, U27A, A29G, G30A
# DNA 1: CAATCTGAATTCCGGTCTCCC
# DNA 2: TGGTGGCTACGACGGGATT
# B30: CAGCGAU (DNA:RNA)
# RNA: B1 RNA with G25C, G26A, A27G, G28C
# DNA 1: CAATCTGAATTCCGGTCTCCC
# DNA 2: TGGTGGCTACGACGGGATT
# B31: UCGAAGU (DNA:RNA)
# RNA: B3 RNA with C25U, A26C, U27G, U28A, A31U
# DNA 1: CAATCTGAATTCCGGTCTCCC
# DNA 2: TGGTGGCTACGACGGGATT
# Biological target: T1, RBFOX1 RRM RbFoxmut (Fox-RRM*)
# Experiment: EMSA; HiTS-Eq, 1 nM pool, 10 min; buffer printed only for the single-RNA assays: 10 mM Tris pH 7.5, 150 mM NaCl, 3.4 mM EDTA, 0.001% NP-40, 30 C
# Conditions: tags: His6 N-terminal (pET28a); label: 5' 32P
# Procedure, shortened: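 Purified RbFox RRM (wild type or mutant) was equilibrated for 10 min in 50 µL with 1 nM of a 5′-radiolabelled pool of RNA with 7 randomized nucleotides, its flanks annealed to DNA oligonucleotides, across increasing protein concentrations. Free RNA was separated by 8% native PAGE, excised, reverse-transcribed, PCR-barcoded and sequenced on an Illumina HiSeq 2500. Relative association constants came from read-count changes of each variant against the control reaction, normalised to the cognate motif.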
row,Binder,binding signal
1,B1,0.0724 KA relative to UGCAUGU
2,B2,0.0995 KA relative to UGCAUGU
3,B3,0.0983 KA relative to UGCAUGU
4,B4,0.0953 KA relative to UGCAUGU
5,B5,0.0471 KA relative to UGCAUGU
6,B6,0.109 KA relative to UGCAUGU
7,B7,0.114 KA relative to UGCAUGU
8,B8,0.953 KA relative to UGCAUGU
9,B9,0.139 KA relative to UGCAUGU
10,B10,0.111 KA relative to UGCAUGU
11,B11,0.0559 KA relative to UGCAUGU
12,B12,0.15 KA relative to UGCAUGU
13,B13,0.0758 KA relative to UGCAUGU
14,B14,0.316 KA relative to UGCAUGU
15,B15,0.127 KA relative to UGCAUGU
16,B16,0.199 KA relative to UGCAUGU

row,Binder,binding signal
1,B17,0.11 KA relative to UGCAUGU
2,B18,0.0751 KA relative to UGCAUGU
3,B19,0.0737 KA relative to UGCAUGU
4,B20,0.104 KA relative to UGCAUGU
5,B21,0.0729 KA relative to UGCAUGU
6,B22,0.104 KA relative to UGCAUGU
7,B23,0.102 KA relative to UGCAUGU
8,B24,0.0815 KA relative to UGCAUGU
9,B25,0.0824 KA relative to UGCAUGU
10,B26,0.0549 KA relative to UGCAUGU
11,B27,0.104 KA relative to UGCAUGU
12,B28,0.436 KA relative to UGCAUGU
13,B29,0.0953 KA relative to UGCAUGU
14,B30,0.0681 KA relative to UGCAUGU
15,B31,0.107 KA relative to UGCAUGU
